This sample is rich in variants without activity.
B1: tRNA (parent)
chain: CUCUCGGUAGCCAAGUUGGUUUAAGGCGCAAGACUUUAAUUUAUCACUACGAAAUCUUGAGAUCGGGCGUUCGACUCGCCCCCGGGAGAUUUUUUCCUCGAGCAA

Variants of: B1
Assay: nonsense suppression (GFP-seq) (ratio to wild type); higher = more function; SUP4oc tRNA, yeast GFP reporter sort-seq
Method in brief: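 Yeast were grown in raffinose/galactose medium with 80 mg/L adenine, each strain bearing a genome-integrated ochre-suppressor tRNA variant from a ~3% random-mutation library, a galactose-driven GFP ochre reporter, and RFP. After sorting into GFP/RFP bins, every bin was sequenced on an Illumina platform at phred ≥30. The GFPSEQ value, a measure of nonsense suppression, is the weighted bin median GFP/RFP relative to the unmutated parent tRNA, using each variant's estimated cell share per bin as the weight. Only variants with ≥100 reads and ≥30 cells were included.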

Nonsense suppression, 0.0353:
CUCACGGUAGCCAAGUUGGUUUAAGGCGCAAGACUUUAAUUUAUCACUACGAAAUCUUGAGAUCGGGCGUUCGACUCGUCCCCGGGAGAUUUUUUCCUCGAGCAA

Nonsense suppression, 0.0306:
CUCACGGUAGUCAAGUUGGUUUAAGGCGCAAGACUUUAAUUUAUCACUACGAAAUCUUGAGAUCGGGCGUUCGACUCGCCCCCGGGAGAUUUUUUCCUCGAGCAA

Nonsense suppression, 0.215:
CUCACGGUAGCCAAGAUGGUUUAAGGCGCAAGACUUUAAUUUAUCACUACGAAAUCUUGAGAUCGGGCGUUCGACUCGCCCCCGGGAGAUUUUUUCCUCGAGCAA

Nonsense suppression, 0.0506:
CUCACGGUAGCCAAGUUGGUUUAAGGCGCAAGACUUUAAUUUAUCACUACGAAAUCUUGAGAUCGGGCGUUCGACUUGCCCCCGGGAGAUUUUUUCCUCGAGCAA

Nonsense suppression, 0.174:
CUCACGGUAGCCAAGUAGGUUUAAGGCGCAAGACUUUAAUUUAUCACUACGAAAUCUUGAGAUCGGGCGUUCGACUCGCCCCCGGGAGAUUUUUUCCUCGAGCAA

Nonsense suppression, ≤ 0.026:
CUCAAUGUAGCCAAGUUGGUUUAAGGCGCAAGACUUUAAUUUAUCACUACGAAAUCUUGAGAUCGGGCGUUCUACUCGCCCCCGGGAGAUUUUUUCCUCGAGCAA
CUCAAGGUAGCCAAGUCGGUUUAAGGCCCAAGACAUUAAUUUAUCACUACGAAAUCUUGAGAUCGGGCGUUCGACUCGACCCCGGGAGAUUUUUUCCUCGAGCAA
CUCAAGGUAGCCAAGUCGGUUUAAGGCCCAAGACAUUAAUUUAUCACUACGAAAUCUUGAGAUCGGGCGUUCGACUCGACCACGGGAGAUUUUUUCCUCGAGCAA
CUCAAGGUAGCCAAGUUGGUGUAAGGCGCAAGAUUUUAAUUUAUCACUACGAAAUCUUGAGAUCGGGCGAUCGACUCGCCCCCGGGAGAUUUUUUCCUCGAGCAA
CUCACGGUAGACAAGUUGGUUUAAGGCGCAAGACUUUAAUUUAUCACUACGAAAUCUUGAGAUCGGGCGUUCGACUCGCCCCCGGGAGAUUUUUUCCUCGAGCAA
CUCACGGUAGACAUGUUGGUUUAAGGCGCAAGACUUUAAUUUAUCACUACGAAAUCUUGAGAUCGGGCGUUCGACUCGCCCCCGGGAGAUUUUUUCCUCGAGCAA
CUCACGGUAGACAAGUUGGUUUAAGGCGCAAGACUUUAAUUUAUCACUACGAAAUCUUGAGGUGAGGCGUUCGACCCGCCCCCGGGAGAUUUUUUCCUCGAGCAA
CUCACGGUAGGCAAGUUGGUUUAAGGCGCAAGAUUUUAAUUUAUCACUACGAAAUCUUGAAAUCGGGCGUUCGUCUCGCCCCCGGGAUAUUUUUUCCUCGAGCAA
CUCACGGUAGUCAAGUUGGUUUAAGGCGCAAGAUUUUAAUUUAUCACUACGAAAUCUUGAGAUCGGGCGUUCGACUCGCCCCCGGGAGAUUUUUUCCUCGAGCAA
CUCACGGUAGUCAAGUUGAUUUAAGGCGCAAGACUUUAAUUUAUCACUACGAAAUCUUGAGAUCGGGCGUUCGACUCGCCCCCGAGAGAUUUUUUCCUCGAGCAA
CUCACGGUAGUCAAGUUGGUUUAAGGCUCAAGACUUUAAUUUAUCACUACGAACUCUUGAGAUCGGGCGUUCGACUCGCCCCCGGGAGAUUUUUUCCUCGAGCAA
CUCACGGUAGUCAAGUUGGUUUAAGGCGCAAGACUUUAAUUUAUCACUACGAAAUCUUGAGAUCGGGCGUUCGACCCGCCCCCGGGAAAUUUUUUCCUCGAGCAA
CUCACGGUAGCGAAGUUGGUUUAAGGCGCAAGACUUUAAUUUAUCACUACGAAAUCUUGAGAUGGCGCGUUCGACUCGCCCCCGGGAGAUUUUUUCCUCGAGCAA
CUCACGGUAGCCAAGUUGGUUUAAGGCGAAAGACUUUAAUUUAUCACUACGAAAUCUUGAGCUCGGGCGUUCGACUCGCCCCUGGGAGAUUUUUUCCUCGAGCAA
CUCACGGUAGCCAAGUUGGUUUAAGGCGGAAGACUUUAAUUUAUCACUACGAAAUCUUGAGAUCGGGCGCUCGACUCGACCCCGGCAGGUUUUUUCCUCGAGCAA
CUCACGGUAGCCAAGUUGGUUUAAGGCGUAAGACUUUAAUUUAUCACUACGAAAUCUUGUGAUCGGGCGUUCGACUCGCCCCCGGGAGAUUUUUUCCUCGAGCAA
CUCACGGUAGCCAAGUUGGUUUAAGGCGUAAGACUUUAAUUUAUCACUACGAAAUCUUUAGAUCGGGCGUUCAACUCGCCCCCGGGAGAUUUUUUCCUCGAGCAA
CUCACGGUAGCCAAGUUGGUUUAAGGCGCAAGAUUUUAAUUUAUCACUACGAAAUCUUGAGAUCGGGCGUUCGACUCGCCCCCGGGAGAUUUUUUCCUCGAGCAA
CUCACGGUAGCCAAGUUGGUUUAAGGCGCAAGAUUUUAAUUUAUCACUACGAAAUCUUGAGAUCGGGCGUUCGACACGCCCCCGGGAGAUUUUUUCCUCGAGCAA
CUCACGGUAGCCAAGUUGGUUUAAGGCGCAAGACUUUAAUUUAUCACUACGAAAUCUUGAGAUCGGGAGUUCGACUCGCCCCCGGGAGAUUUUUUCCUCGAGCAA
CUCACGGUAGCCAAGUUGGUUUAAGGCGCAAGACUUUAAUUUAUCACUACGAAAUCUUGAGAUCGGGCGUUCGACUCGCCCCGGGGACAUUUUUUCCUCGAGCAA
CUCACCGUAGCCAAGUUUGUUUAAGGCGCAAGACUUUAAUUUAUCACUACGAAAUCUUGAGAUCGGGCGUUCGACUCGCCCCCGGGAGAUUUUUUCCUCGAGCAA
CUCACCGUAGCCAAGUUGGUUUAAGGCGCAAGACUUUAAUUUAUCACUACGAAAUCUUGAGAUCCGGCGUUCGACUUGCCCCCGGGAGAUUUUUUCCUCGAGCAA
CUCACCGUAGCCAAGGUGGUUUAAGGCGCAAGACUUUAAUUUAUCACUACGAAACCUUGAGAUCGGGCGUUCGACUCGCCCCCGGGAGAUUUUUUCCUCGAGCAA
CUCACGCUAGCCAAGUUGGUUUAAGGCGCAAGACUUUAAUUUAUCACUACGAAAUCUUGAGAUCGGGCGUUCGACUCGCCACCGGGAGAUUUUUUCCUCGAGCAA
CUCACGCUAGCCAACUUGGUUUAAGGCGCAAGACUUUAAUUUAUCACUACGAAAUCUUGAGAUCGGGCGUUCGACUCCCCCCCGGUAGAUUUUUUCCUCGAGCAA
CUCACGUUAGCCAAGUUGGUUUAAGGCGCAGGACUUUAAUUUAUCACUACGAAAUCUUGAGAUCGGGCGUUCGACUCGCCCCCGGGAGAUUUUUUCCUCGAGCAA
CUCACGGUAACCAAGUUGGUUUAAGGCGCAAGACUUUAAUUUAUCACUACGAAAUCUUGAGAUCGGGCGUUCGACUCGCCCCCGGGAGAUUUUUUCCUCGAGCAA
CUCACGGUAUCCAAGUUGGUUUAAGGCGCAAGACUUUAAUUUAUCACUACGAAAUCUUGAGAUCGGGCGUUCGACUCGCCCCUGGGAGAUUUUUUCCUCGAGCAA
CUCACGGUAGCCAAAUUGGUUGAAGGCGCAAGAUUUUAAUUUAUCACUACGAAAUCUUGAGAUCGGGCGUUCGGCUCGCCCCUGGAAGAUUUUUUCCUCGAGCAA
CUCACGGUAGCCAAUUUGGUUUAAGGCGCAAGACUUUAAUUUAUCACUACGAAAUCUUGAGAUCGGGCGUUCGACUCGCCCCCGGGACAUUUUUUCCUCGAGCAA
CUCACGGUAGCCAAGUUAGUUUAAGGCGCAAGACUUUAAUUUAUCACUACGAAAUCUUGAGAUCGGGCGUUCGACUCGCCCCCGGGAGAUUUUUUCCUCGAGCAA
CUCACGGUAGCCAAGUUGUUUUAAGGCGCAAGACUUUAAUUUAUCACUACGAAAUCUUGAGAUCGGGCGUUCGACUCGCCCCCGGGAGAUUUUUUCCUCGAGCAA
CUCACGGUAGCCAAGUUGGUUUAAACCGCAAGACUUUAAUUUAUCACUACGAAAACUUGAGAUCGGGCGGUCGACUCGCCCCCGGGAGAUUUUUUCCUCGAGCAA
CUCACGGUAGCCAAGUUGGUUUAAGACGCAAGACUUUAAUUUAUCACUACGAAAUCUUGAGAUCGGGCGUUCGACUCGCCCCCGGGAGAUUUUUUCCUCGAGCAA
CUCACGGUAGCCAAGUUGGUUUAAGUCGCAAGACUUUAAUUUAUCACUACGAAAUCUUGAGAUCGGGCGUUCGACUCGCCCCCGGGAGAUUUUUUCCUCGAGCAA
CUCACGGUAGCCAAGUUGGUUUAAGGCUCAAGACUUUAAUUUAUCACUACGAAAUCUUGAGAUCGGGCGUUCGACUGGCCCCUGGGAGAUUUUUUCCUCGAGCAA
CUCACGGUAGCCAAGUUGGUUUAAGGCGCAAAACUUUAAUUUAUCACUACGAAAUCUUGAGAUCGGGCGUUCGACUCGCCCCCGGGAGAUUUUUUCCUCGAGCAA
CUCACGGUAGCCAAGUUGGUUUAAGGCGCAAGACUUUAAUUUAUCACUACGAAAUCUUCAGAUCGGGCGUUCGACUCGCCCCCUGGAGAUUUUUUCCUCGAGCAA
CUCACGGUAGCCAAGUUGGUUUAAGGCGCAAGACUUUAAUUUAUCACUACGAAAUCUUUCGAUCGGGCGUUCGACUCGCCCCCGGGAGAUUUUUUCCUCGAGCAA
CUCACGGUAGCCAAGUUGGUUUAAGGCGCAAGACUUUAAUUUAUCACUACGAAAUCUUGACAUCGGGCUUUCGACUCGCCCCCGGGAGAUUUUUUCCUCGAGCAA
CUCACGGUAGCCAAGUUGGUUUAAGGCGCAAGACUUUAAUUUAUCACUACGAAAUCUUGAGAUCGGGCCUUCGACUCGCCCCCGGGAGAUUUUUUCCUCGAGCAA
CUCACGGUAGCCAAGUUGGUUUAAGGCGCAAGACUUUAAUUUAUCACUACGAAAUCUUGAGAUCGGGCGUUCGACUCACCCCCGGGAGAUUUUUUCCUCGAGCAA
CUCACGGUAGCCAAGUUGGUUUAAGGCGCAAGACUUUAAUUUAUCACUACGAAAUCUUGAGAUCGGGCGUUCGACUCGCCCCCCGGAGAUUUUUUCCUCGAGCAA
CUCACGGUAGCCAAGUUGGUUUAAGGCGCAAGACUUUAAUUUAUCACUACGAAAUCUUGAGAUCGGGCGUUCGACUCGCCCCCGGUAGAUUUUUUCCUCGAGCAA
CUCACGGAAGCCAAGUUGGUUUAAGGCGCAAGACUUUAAUUUAUCACUACGAAAUCUUGAGAUCGGGCGUUCGACUCGCCCCCGGGAGAUUUUUUCCUCGAGCAA
CUCACGGAAGCCAAGGUGGUUUAAGGCGCAAGACUUUAAUUUAUCACUACGAAAUCUUGAGAUCGGGCGUUCGACUCGCCCCCGGUAGAUUUUUUCCUCGAGCAA
CUCACGGUAGCCAAGAUGGUUUAAGGCGCAAGACUUUAAUUUAUCACUACGAAAUCUUGAGAUCGGGCGUUCUACUCGCCCCAGGGAGAUUUUUUCCUCGAGCAA
CUCACGGUAGCCAAGGUGGUUUAAGGCGCAAGACUUUAAUUUAUCACUACGAAAUCUUCAGAUCGGGCGUUCGGCUCGCCCCCGGGAGAUUUUUUCCUCGAGCAA

— the RNAGym collection of RNA variant scans (doi:10.1101/gad.245936.114)
